# According to PubChem BioAssay (Tox21):
# “And” between values parts separate entries of the source, which are not always exact repeats. Identical values can stand only once. This list was built around the results that the source calls inconclusive (neither active nor inactive); the mix of calls is not that of the screen. Where the call is inconclusive, the potency comes from a doubtful curve fit. Where a structure was tested more than once in an assay, its records may differ in their call. The source made the active and inactive calls. Calls follow the shape of the dose curve; as a rule, active = well fitted inhibition curve with a large enough effect in the repeat runs; inconclusive = weak or mixed curves; inactive = no such curve, though single readings can be large or run the other way.
# Target: Cytochrome P450 1A2 (Homo sapiens) (UniProt P05177)
# Chain of UniProt P05177 (P05177 whole entry, looked up): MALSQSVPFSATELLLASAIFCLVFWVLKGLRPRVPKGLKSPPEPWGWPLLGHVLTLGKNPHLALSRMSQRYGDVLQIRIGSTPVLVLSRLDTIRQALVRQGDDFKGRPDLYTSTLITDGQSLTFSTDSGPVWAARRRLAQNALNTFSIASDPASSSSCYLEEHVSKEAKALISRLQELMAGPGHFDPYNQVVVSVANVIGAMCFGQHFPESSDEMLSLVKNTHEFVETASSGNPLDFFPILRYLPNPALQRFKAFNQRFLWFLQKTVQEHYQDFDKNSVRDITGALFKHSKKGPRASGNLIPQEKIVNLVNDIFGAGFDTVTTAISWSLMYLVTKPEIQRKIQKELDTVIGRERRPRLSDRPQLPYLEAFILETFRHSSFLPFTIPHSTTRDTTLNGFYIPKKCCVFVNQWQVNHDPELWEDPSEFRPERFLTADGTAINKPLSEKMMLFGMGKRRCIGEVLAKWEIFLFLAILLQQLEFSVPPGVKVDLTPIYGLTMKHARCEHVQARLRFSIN
# Assay: Cytochrome P450 Family 1 Subfamily A Member 2 (CYP1A2) small molecule antagonists: luciferase reporter qHTS assay (AID 1671199); also: nearly all actives have a fitted effect of over 50% in size
# Settings: P450-Glo CYP1A2 enzyme, luciferin luminescence, 1 h; series mostly up to 115 µM; activity change, negative = inhibition: at the top concentration
# Description: National Center for Advancing Translational Sciences [NCATS]
# U.S. Environmental Protection Agency [EPA]
# National Institutes of Environmental Health Sciences [NIEHS]
# National Toxicology Program [NTP]
# U.S. Food and Drug Administration [FDA]
# Cytochrome P450 (CYP) enzymes are membrane-bound hemeproteins that play a key role in metabolism of drugs and xenobiotics. Evaluation of the effect of chemicals on CYP isozymes is useful to minimize the adverse drug reactions and toxicities in drug development process. Tox21 chemicals were tested for their effect on CYP enzyme activities by using P450-Glo (TM) screening systems (Promega Corporation, Madison, WI). These systems provide a luminescent method containing proluciferin substrates and are converted to luciferin products by CYP isozymes. The luciferin products formed are detected with a luciferin detection reagent, and the amount of light produced is proportional to CYP activity. P450-Glo (TM) CYP1A2 screening system (Catalog. No. V9770) was used to detect the compounds that interfere in CYP1A2 activity. The positive control compound used for CYP1A2 assay is furafylline (Sigma-Aldrich, St. Louis, MO).
# Tox21 Assay Protocol Summary:
# Two ul of enzyme-substrate mix was dispensed into medium binding white/solid 1536-well plates (Greiner Bio-One North America Inc., Monroe, NC) using a BioRaptr Flying Reagent Dispenser (FRD, Beckman Coulter, Brea, CA). Compounds dissolved in DMSO and positive control (furafyllline) were transferred to the assay plates at 23 nl using a Pintool station (Wako, San Diego, CA). The assay plates were incubated at room temperature for 10 min. Then 2 ul of NADPH regeneration solution was added to each well of the assay plates using an FRD and incubated at room temperature for 1 h. The reaction was stopped by adding 4 ul of detection reagent using an FRD and after 20 min incubation at room temperature the luminescence signal was measured using a ViewLux plate reader (Perkin Elmer, Shelton, CT). Data were expressed as relative luminescence units.
# % is scaled to controls: 0 for no effect and ±100 for the full control effect; potency is read from the fitted curve at half-maximal effect; tags tell the direction and shape of the fitted curve.
SMILES,Potency,"activity change, negative = inhibition"
Fc1ccc(Br)cc1,active: 40.3 µM and inactive,–
COc1cc2c(cc1OC)[C@@H]1CC(=O)[C@@H](CC(C)C)CN1CC2,"inconclusive: 14.4 µM [inhibitor, partial curve]",–
CCCCc1ncc(/C=C(\Cc2cccs2)C(=O)O)n1Cc1ccc(C(=O)O)cc1,"inconclusive: 27.5 µM [inhibitor, partial curve]",–
CCCOc1ccccc1-c1nc2n[nH]nc2c(=O)[nH]1,"inconclusive: 14.4 µM [inhibitor, partial curve]",–
Nc1ccc(-c2ccc(F)cc2)cc1,active: 0.502 µM,–
CCCN(CCC)S(=O)(=O)c1ccc(C(=O)O)cc1,inconclusive: 71 µM [inhibitor],–
CCCCC(=O)O[C@]1(C(=O)CO)CC[C@H]2[C@@H]3CCC4=CC(=O)CC[C@]4(C)[C@H]3[C@@H](O)C[C@@]21C,–,inactive: 12.8% [at 53 µM]
C=CCOC(=O)CC(C)C,inactive,–
Cc1ccc(N)cc1[N+](=O)[O-],active: 8.02 µM,–
O=C1NCCN1,"inconclusive: 60.6 µM [inhibitor, partial curve, poor fit]",–
CN1CCC[C@@H]1Cc1c[nH]c2ccc(CCS(=O)(=O)c3ccccc3)cc12,–,inactive: -7.78% [at 53 µM]
O=P(c1ccccc1)(c1ccccc1)c1ccccc1,"inconclusive: 35.6 µM [inhibitor, partial curve]",–
NS(=O)(=O)c1cc(-c2nn[nH]n2)c(NCc2cccs2)cc1Cl,–,inactive: 9.75% [at 53 µM]
COc1cc(C=O)ccc1OC(=O)C(C)C,"inconclusive: 71 µM [inhibitor, partial curve]",–
CCN(CC)CCOc1ccc2c(c1)C(=O)c1cc(OCCN(CC)CC)ccc1-2,"inconclusive: 36.3 µM [inhibitor, partial curve]",–
CC(C)(O)CCC(C)(C)O,–,inactive: -0.4%
CC(C)CC=O,–,inactive: -13.5%
CC(=O)O[C@H]1C[C@@H]2CC[C@@H]3[C@H](CC[C@@]4(C)[C@H]3C[C@H]([N+]3(C)CCCCC3)[C@@H]4OC(C)=O)[C@@]2(C)C[C@@H]1N1CCCCC1,–,inactive: -5.31% [at 53 µM]
COc1ccc([C@@H]2Sc3ccccc3NC(=O)[C@@H]2O)cc1,"inconclusive: 17.4 µM [inhibitor, partial curve]",–
O=C(O)c1ccccc1-c1ccc(C(F)(F)F)cc1,"inconclusive: 30.9 µM [inhibitor, partial curve, poor fit]",–

SMILES,Potency,"activity change, negative = inhibition"
CCOCCO,"inconclusive: 35.6 µM [inhibitor, partial curve]",–
O=C(OC1C[C@H]2CC[C@@H](C1)[N+]21CCCC1)C(O)(c1ccccc1)c1ccccc1 (stereo not given in full),–,inactive: 13% [at 53 µM]
CC(C)C1OCCN1CCOC(=O)NCCCCCCNC(=O)OCCN1CCOC1C(C)C (stereo not given),–,inactive: -20%
COCCCCCCCCOCCC[Si](C)(O[Si](C)(C)C)O[Si](C)(C)C,"inconclusive: 39.9 µM [inhibitor, partial curve]",–
CCOCCOCC,"inconclusive: 46.8 µM [inhibitor, partial curve, poor fit]",–
CCCCC(CC)CO (stereo not given),inactive,–
CCNC(=S)NCC,"inconclusive: 78.8 µM [inhibitor, partial curve, poor fit]",–
CCCC(C)CO (stereo not given),active: 35.6 µM,–
Nc1cnn([C@@H]2O[C@H](CO)[C@@H](O)[C@H]2O)c(=O)n1,–,inactive: 0.964%
O=C(O)c1nc(Cl)c(Cl)c(Cl)c1Cl,"inconclusive: 35.6 µM [inhibitor, partial curve]",–
Cc1nc2ccc(CN(C)c3ccc(C(=O)N[C@@H](CCC(=O)O)C(=O)O)s3)cc2c(=O)[nH]1,"inconclusive: 27.5 µM [inhibitor, partial curve, poor fit]",–
CCCCCCCCOC(=O)CCCCCCCCC(=O)OCCCCCCCC,–,inactive: -13.1%
CC(C)NCC(O)c1cc(O)cc(O)c1 (stereo not given),inconclusive: 24.5 µM [inhibitor],–
Cc1ccc(N(C)C)cc1,"inconclusive: 39.9 µM [inhibitor, full curve]",–
COC(=O)c1ccc(I)cc1S(=O)(=O)NC(=O)Nc1nc(C)nc(OC)n1,"inconclusive: 34.1 µM [inhibitor, partial curve]",–
O=C(O)CN(CCCN(CC(=O)O)CC(=O)O)CC(=O)O,–,inactive: -0.26% [at 23.6 µM]
O=C1Nc2ccc([N+](=O)[O-])cc2C1=O,active: 22.4 µM,–
c1ccc2c(c1)ccc1c3ccccc3ccc21,active: 0.725 µM,–
OCCCCl,–,inactive: -2.13%
Cc1ccc(N)c([N+](=O)[O-])c1,active: 15.7 µM and active: 14.2 µM,–
